# ± gives the standard deviation. Over roughly 5,500 sequences, “pre-steady-state target cleavage rate” has its median near 0.1; the highest 2% begin near 0.64. Only a part is listed here, and it is no random draw.
# Test system: MIWI (PIWIL1) piRISC loaded with piRNA #2 (30 nt)
# Experiment: pre-steady-state target cleavage rate (min^-1); MIWI and MILI are mouse PIWI proteins and EfPiwi is from a freshwater sponge; tags in brackets are library labels; higher = faster piRNA-guided slicing of the target
# Details: guide: piRNA #2 5'p-UUAGGUAACCCAGUAGAUCCAGAGGAAUUC; auxiliary factor: 500 nM mouse GTSF1
# Procedure, shortened: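 The method was Cleave-'n-Seq, in which uncleaved targets from a transcribed, DNA-blocked target RNA library were sequenced after exposure to active affinity-purified piRISC carrying one synthetic guide, with or without GTSF1 partner protein. Reactions contained 0.1 nM library, 1 nM piRISC and, where present, 500 nM GTSF1 in HEPES–potassium acetate buffer at 33 °C for 0–8 or 0–960 min. Reads were normalised to depth and to weakly complementary targets, three trials were pooled, and k3 was capped at 0.0001 min^-1. The pre-steady-state cleavage rate came from a burst-and-steady-state fit.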
row,Sequence,pre-steady-state target cleavage rate
1,CUUAACCUCUGGAUCUUCUGCGUUACCUAA,0.165 ± 0.02
2,CUUAAGGUCUGGAUCUACUAGGUUACCUAA,0.111 ± 0.013
3,CUUAAGCUCUGGAUCUUCUGCGUUACCUAA,0.0806 ± 0.019
4,CUAUUCCUCUGGAUCUACUGGCAUACCUAA,0.00657 ± 0.0034
5,GAAUUCCUCUGGAUCUACUGGGUAUGGAUA [g8:g30:cont:t1A],0.0139 ± 0.0067
6,CUUAACCUCUGGAUCUACUAGGGUUACCUAA,0.00445 ± 0.0037
7,CUUAAGGAGACCUAGAUGAGGCGUUACCUAA,0.00494 ± 0.0017
8,CUUAAGGUCUGAUCUACUGGGUUACCUAA,0.0176 ± 0.0042
9,CUUAUCCUCUGGAUCUACUGGGUUACCUGA,0.484 ± 0.14
10,CUUAAGCACUGGAUCUACUGGGUUACCUUA,0.16 ± 0.016
11,CUUAAGCUCUGGAUCUACUGGGUUAGCUAA,0.229 ± 0.026
12,CUUUUCCUCUGGAUGUACUGGGUUACCUUA,0.365 ± 0.033
13,CUUAACCUCUGGAUCUACAGGCUUACCUAA,0.0258 ± 0.0056
14,CUUAAGGUCUGGAUCUACAGGGUUACCUUA,0.0564 ± 0.011
15,GAAUUGCUCUGGAUCAACUGGGUUACCUAA,0.0588 ± 0.021
16,CUUAACCUCUCGAUCUACUGGGUUACCUAA,0.429 ± 0.037
17,CUAUUCCUCAGGAUCUACUGGGAUACCUAA,0.37 ± 0.041
18,CUUAAGGUGUGGAUCUACUGGGAUACCUAA,0.0259 ± 0.0087
19,CUUAACCUCAGGAUCUACUGGGAUACCUAA,0.261 ± 0.036
20,CAAUUCCUCAGGAUCUACUGGGUUUCCUAA,0.505 ± 0.065

row,Sequence,pre-steady-state target cleavage rate
1,CUAUUCCUCUGGAUCUACUGGGUUCACCUAA,0.391 ± 0.05
2,CUAUUCCACUGGUUCUACUGGGUUACCUAA,0.482 ± 0.034
3,CAAUUCCUCUGGAUCUACUGGGUUACGAUA,0.24 ± 0.058
4,GAAUUCCUCUGGAUGCUACUGGGUUACCUAA,0.301 ± 0.041
5,CUUAAGCUCAGGAUCUACUGGGUUACCUAA,0.349 ± 0.037
6,CUAUUCCUCAGGAUCAACUGGGUUACCUAA,0.48 ± 0.043
7,CUUAAGCUACUGGAUCUACUGGGUUACCUAA,0.157 ± 0.02
8,CUAUUGCUCUGGUUCUACUGGGUUACCUAA,0.426 ± 0.036
9,CUUAAGGACUGGUUGUACUGGGUUACCUAA,0.0213 ± 0.02
10,CUUUUCCUCUCGAUCUACAGGGUUACCUAA,0.371 ± 0.024
11,CUUAAGGACUGGAUCUACUGGGUUAUCCUAA,0.113 ± 0.053
12,CUUAAGGAGUGGUACUACUGGGUUACCUAA,0.00729 ± 0.0052
13,CUUAAGCACUGGAUCUACUGCGUUACCUAA,0.368 ± 0.045
14,CUUAAGGACUGGAUCUAGUGGGUUAGCUAA,0.0132 ± 0.0072
15,CUAUUCCUGAGGAUCUACUGGGUUACCUAA,0.3 ± 0.032
16,CUUAACCUCAGGAUCUACAGGGUUACCUAA,0.234 ± 0.03
17,CUUAAGGUCUGGAUCUACUGGGUUACCCUAA,0.0686 ± 0.018
18,CUUUUCCUCUGGAUCAUACUGGGUUACCUAA,0.0109 ± 0.0056
19,CUUAAGCUCUGGAUCUACUGGGUUCCCUAA,0.0651 ± 0.013
